# Experimental data reported in the supplement of paper PMC9446081.
# In all, about 39,000 compounds went through this assay and about 220 (0.56%) showed activity. The list shows a part of the results.
# System: Escherichia coli K-12 BW25113
# Assay: relative growth (OD600 normalised to plate interquartile mean) (fraction); higher = less growth inhibition, active = 0.2 or less
# Conditions: 50 µM; LB; incubation time: overnight (16-24 h)
# 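Note: static incubation at 37 °C against the wild-type strain, values averaged over two biological replicates.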
row,Compound,relative growth
1,C[C@@H]1CCCCO[C@@H](CN(C)Cc2ccc3c(c2)OCO3)[C@H](C)CN([C@@H](C)CO)C(=O)c2cc(NS(=O)(=O)c3cccs3)ccc2O1,inactive: 0.999
2,COc1ccc(CN(C)C[C@H]2Oc3c(NC(=O)c4ccc(-c5nccs5)cc4)cccc3C(=O)N([C@H](C)CO)C[C@H]2C)cc1,inactive: 0.939
3,COc1cc(C(=O)N2CCOCC2)cc(OC)c1OC,inactive: 1.09
4,COc1ccc(CN2C[C@@H](C)[C@H](OC)CN(C)C(=O)c3cc(NC(=O)c4nc5ccccc5s4)ccc3OC[C@H]2C)cc1,inactive: 1.04
5,C[C@H](CO)N1C[C@H](C)[C@@H](CN(C)CC2CCCCC2)Oc2c(NC(=O)Nc3ccc(F)cc3)cccc2C1=O,inactive: 0.933
6,C[C@@H]1CN([C@H](C)CO)C(=O)Cc2cc(NC(=O)c3ccncc3)ccc2O[C@@H]1CN(C)Cc1ccc(-c2ccccc2)cc1,inactive: 1.01
7,C[C@@H]1CN([C@@H](C)CO)C(=O)c2cccc(NC(=O)c3ccc(-c4nccs4)cc3)c2O[C@H]1CN(C)CC1CCCCC1,inactive: 0.932
8,COc1ccc(S(=O)(=O)Nc2ccc3c(c2)C(=O)N([C@@H](C)CO)C[C@H](C)[C@H](CN(C)CC2CCCCC2)OCCCC[C@H](C)O3)cc1,inactive: 0.967
9,C[C@H]1CN([C@@H](C)CO)C(=O)c2cccc(NC(=O)Nc3cccc4ccccc34)c2O[C@H]1CN(C)Cc1ccc2c(c1)OCO2,inactive: 0.994
10,O=C(C[C@H]1C=C[C@H](NS(=O)(=O)c2ccc(F)cc2)[C@H](CO)O1)NCc1ccc(Cl)c(Cl)c1,inactive: 0.997
11,O=C(C[C@@H]1CC[C@H]2[C@@H](COC[C@H](O)CN2C(=O)Nc2cccc(F)c2)O1)NCCCN1CCOCC1,inactive: 1
12,COCC(=O)Nc1ccc2c(c1)OC[C@@H](C)N(C(=O)CN1CCOCC1)C[C@@H](C)[C@H](OC)CN(C)C2=O,inactive: 1.01
13,C[C@@H]1CN([C@@H](C)CO)C(=O)c2c(c3ccccc3n2C)-c2ccccc2CO[C@@H]1CN(C)C(=O)N[C@H](C)c1ccccc1,inactive: 0.985
14,C[C@@H]1CN([C@H](C)CO)C(=O)c2cccc(NC(=O)c3nc4ccccc4s3)c2O[C@H]1CN(C)Cc1ccc(Oc2ccccc2)cc1,inactive: 0.999
15,CO[C@H]1O[C@H]2CO[C@H]([C@@H]1O)[C@@H]2O,inactive: 0.99
16,COc1ccc2c3c(n(c2c1)C)[C@H](CO)N(C[C@]13CCN(CC1)C(=O)Nc1ccc(cc1)F)C(=O)c1ccc(cc1)F,inactive: 0.995
17,COc1cccc(-c2ccc3c(c2)O[C@H](CN(C)C(=O)C2CCOCC2)[C@H](C)CN([C@@H](C)CO)S3(=O)=O)c1,inactive: 1.01
18,C[C@@H]1CCCCO[C@H](CN(C)S(C)(=O)=O)[C@@H](C)CN([C@H](C)CO)C(=O)c2cc(NC(=O)Nc3cccc4ccccc34)ccc2O1,inactive: 1.01
19,O=C(C[C@@H]1C=C[C@@H](NC(=O)CN2CCOCC2)[C@H](CO)O1)NCCc1ccccc1,inactive: 1
20,C[C@H](CO)N1C[C@H](C)[C@@H](CN(C)S(=O)(=O)c2ccc(Cl)cc2)Oc2c(NC(=O)Nc3ccc(C(F)(F)F)cc3)cccc2C1=O,inactive: 0.798
21,CC(C)N1C[C@@H](C)[C@H](CN(C)S(=O)(=O)c2ccc(F)cc2)OCCCC[C@H](C)Oc2ccc(NC(=O)Nc3ccccc3)cc2C1=O,inactive: 1.02
22,C[C@@H]1CN([C@H](C)CO)S(=O)(=O)c2ccc(C#Cc3ccncc3)cc2O[C@H]1CN(C)S(=O)(=O)c1ccccc1,inactive: 0.991
23,C[C@H]1CN([C@@H](C)CO)C(=O)c2cc(NC(=O)C3CC3)ccc2O[C@H]1CN(C)S(=O)(=O)c1ccc(F)cc1,inactive: 0.989
24,COC(=O)c1c2oc(c1C(=O)OC)C(=O)N[C@H](Cc1ccccc1)Cn1cc(nn1)[C@@H](Cc1ccccc1)NC(=O)N[C@H](COC(=O)NCCCCCC(=O)NO)CC2,inactive: 1.04
25,C[C@@H]1CN([C@H](C)CO)C(=O)c2cc(C#CCN(C)C)cnc2O[C@@H]1CN(C)S(=O)(=O)c1ccccc1,inactive: 0.993
26,COc1cccc(NC(=O)N(C)C[C@@H]2OCc3ccccc3-c3c(n(C)c4ccccc34)C(=O)N([C@@H](C)CO)C[C@@H]2C)c1,inactive: 1.06
27,COc1cccc(S(=O)(=O)N[C@H]2CC[C@H](CC(=O)NC3CCC3)O[C@@H]2CO)c1,inactive: 1.01
28,COc1cc2nccc(Oc3ccc(NC(=O)c4cn(C(C)C)c(=O)n(-c5ccc(F)cc5)c4=O)cc3F)c2cc1OC,inactive: 0.99
29,Cc1noc(C)c1S(=O)(=O)Nc1ccc2c(c1)C(=O)N([C@@H](C)CO)C[C@@H](C)[C@@H](CN(C)C(=O)Nc1ccc(F)cc1)OCCCC[C@@H](C)O2,inactive: 1
